Test results from paper PMC4336329 (PLoS ONE, 2015).
About 14,000 (4.5%) of roughly 310,000 compounds showed an effect of 50% or more. The effect is printed as a negative number. The list shows a part of the results.

The compounds below were run against human ether-à-go-go-related gene (hERG) potassium channel (human, UniProt Q12809) (assay: primary screen, population patch clamp on CHO cells stably expressing hERG).
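Also: peak tail current of the secondary pulse compared with the same well before compound.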

human ether-à-go-go-related gene (hERG) potassium channel, sequence (Q12809 whole entry, looked up): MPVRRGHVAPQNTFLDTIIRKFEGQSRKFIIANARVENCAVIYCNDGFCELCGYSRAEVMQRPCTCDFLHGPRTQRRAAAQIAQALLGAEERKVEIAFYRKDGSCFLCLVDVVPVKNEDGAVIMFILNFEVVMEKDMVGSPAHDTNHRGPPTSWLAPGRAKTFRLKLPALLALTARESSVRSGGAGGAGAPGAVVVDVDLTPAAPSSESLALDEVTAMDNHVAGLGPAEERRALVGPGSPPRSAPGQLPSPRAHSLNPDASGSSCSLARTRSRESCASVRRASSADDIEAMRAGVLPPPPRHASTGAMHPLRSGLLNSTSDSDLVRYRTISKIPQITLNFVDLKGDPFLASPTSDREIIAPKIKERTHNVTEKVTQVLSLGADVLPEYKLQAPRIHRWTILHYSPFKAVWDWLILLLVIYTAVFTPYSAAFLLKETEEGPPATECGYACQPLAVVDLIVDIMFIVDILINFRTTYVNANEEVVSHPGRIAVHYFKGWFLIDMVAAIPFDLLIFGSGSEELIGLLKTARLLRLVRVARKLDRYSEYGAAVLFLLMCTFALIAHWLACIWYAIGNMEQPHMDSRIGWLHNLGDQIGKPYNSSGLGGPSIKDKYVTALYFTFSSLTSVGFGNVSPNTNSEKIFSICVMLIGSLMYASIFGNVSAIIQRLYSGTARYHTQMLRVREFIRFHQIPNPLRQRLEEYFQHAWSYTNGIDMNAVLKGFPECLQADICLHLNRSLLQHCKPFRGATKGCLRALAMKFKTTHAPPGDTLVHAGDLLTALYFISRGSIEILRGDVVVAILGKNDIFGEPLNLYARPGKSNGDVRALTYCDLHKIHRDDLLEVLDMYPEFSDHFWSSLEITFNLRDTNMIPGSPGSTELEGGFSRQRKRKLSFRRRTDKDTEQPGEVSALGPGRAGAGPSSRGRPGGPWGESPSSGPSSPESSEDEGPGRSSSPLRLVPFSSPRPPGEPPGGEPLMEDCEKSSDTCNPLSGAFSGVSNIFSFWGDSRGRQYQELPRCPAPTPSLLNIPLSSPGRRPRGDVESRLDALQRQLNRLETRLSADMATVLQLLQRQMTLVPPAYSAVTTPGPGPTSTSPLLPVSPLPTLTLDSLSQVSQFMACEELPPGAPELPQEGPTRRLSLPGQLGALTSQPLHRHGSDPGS

Row | Compound | hERG current change (%, negative = inhibition) at 10uM [%]
1 | CCCCNC(=O)Cn1c(=O)c2c(ncn2CC)n(Cc2ccccc2)c1=O | 9.58
2 | CC(C)CN(CC(C)C)C(=O)Cc1coc2ccc3ccccc3c12 | -1.97
3 | O=C(C1CCC(=O)N(C2CCCCCC2)C1)N1CCN(c2ccccc2Cl)CC1 (stereo not shown) | -42.9
4 | CC(=O)NS(=O)(=O)c1cccnc1Nc1cccc(Cl)c1 | 5.82
5 | COC(=O)[C@H]1C[C@@H]1[C@H](NC(=O)c1ccccc1)c1ccccc1 | 2.26
6 | Cc1cc(NC(=O)CSc2nc(-c3ccco3)cc(C(F)(F)F)n2)n(-c2ccccc2)n1 | 11.6
7 | CCOc1ccccc1CNC(=O)c1ccc(Sc2ccc(Cl)cc2)c(NC(C)=O)c1 | -19.4
8 | O=C(O)CCSc1nc2ccccc2n1-c1ccccc1 | 12.5
9 | Cc1ccc(-c2cc(-c3ccc(C)cc3)[n+](-c3ccccc3)c(-c3ccc(C)cc3)c2)cc1.[O-][Cl+3]([O-])([O-])[O-] | -80.2
10 | Cc1cc(C)nc(SCCC(=O)Nc2ccccc2)n1 | -6.4
11 | Cc1ccc(CNC(=O)CCS(=O)(=O)c2ccc(C)cc2)cc1 | -17.6
12 | O=C(COC(=O)c1cccs1)NCC1CCCCC1 | 13.4
13 | CCOC(=O)Cc1cc(-c2ccc(F)cc2)nc2ccc3ccccc3c12 | 22
14 | O=C(CCC(=O)Nc1ccccc1Cl)N/N=C/c1ccccc1 | 16.5
15 | C=CC[C@]12C=C(OC)C(=O)C(OC)=C1O[C@@H](c1ccc3c(c1)OCO3)[C@H]2C | 10.8
16 | O=C(Cc1cccs1)Nc1ccc(S(=O)(=O)N2CCCC2)cc1 | 10.6
17 | CCOC(=O)C1(CC2CCCCO2)CCN(C(=O)Nc2ccccc2CC)CC1 (stereo not shown) | -49
18 | Cc1ccc(C(=O)NCC(=O)OCC(=O)c2ccc3c(c2)OCCO3)cc1C | 8.26
19 | COc1cc(-c2cc(C(=O)Nc3c(Cl)cc(Cl)cc3Cl)c3ccccc3n2)cc(OC)c1OC | -7.42
20 | CC(=O)N1CN2CN(C(C)=O)CC(C(=O)c3ccccc3)(C2)C1 | 11
21 | CC1CN(C2=CC(=O)CCC2)CC(C)O1 (stereo not shown) | 34.6
22 | CC1CC(=O)N(c2ccc(NCCc3ccccc3)c([N+](=O)[O-])c2)C1=O (stereo not shown) | -8.36

Row | Compound | hERG current change (%, negative = inhibition) at 10uM [%]
23 | COc1ccc(C2C(C(C)=O)=C(C)N=c3s/c(=C\c4cc(C)n(C)c4C)c(=O)n32)c(OC)c1 (stereo not shown) | -8.87
24 | COc1ccc(CCNC(=O)c2nnn(CC(=O)Nc3ccc(C)cc3C)c2N)cc1OC | 13.8
25 | CCOC(=O)C(NC(=O)CC)(Nc1sc2c(c1C(=O)OC)CCN(C)C2)C(F)(F)F (stereo not shown) | -13.7
26 | COc1ccc(CC2(C)OC(c3ccccc3)=NN2C(C)=O)cc1 (stereo not shown) | -18.9
27 | O=C(Cn1cc(C(=O)C(F)(F)F)c2ccccc21)Nc1ccccc1F | 21.4
28 | Cc1ccccc1OCC(=O)NCC(c1ccco1)N1CCCCC1 (stereo not shown) | -31.4
29 | COc1ccc(S(=O)(=O)n2nc(C)cc2C)cc1OC | 5.17
30 | Cc1cc(C(=O)CSc2nnc(-c3cccc(F)c3)n2N)c(C)n1Cc1ccc2c(c1)OCO2 | 7.69
31 | COCc1c(C(=O)OC/C(O)=C(\C#N)c2nc3ccccc3[nH]2)oc2ccccc12 | 29.4
32 | Cc1nn(C(=O)CCCC(=O)NCc2ccccc2)c2ccccc12 | -4.39
33 | Cc1csc(SCC(=O)NC(C)C2CC3CCC2C3)n1 (stereo not shown) | -19.3
34 | O=S1(=O)N=C(Nc2nc3c(s2)CCCC3)c2ccccc21 | 2.79
35 | Cc1ccc(CNC(=O)C2CC3Cn4c(nc5cc(C)c(C)cc54)C3N2C)o1 (stereo not shown) | -36.9
36 | COc1ccc(CN2C(=O)NC(=O)/C(=C\c3ccc(OC)c(OC)c3OC)C2=O)cc1 | 19.3
37 | CCOC(=O)C1=C(c2ccccc2)Nc2ncnn2C1c1cc(OC)cc(OC)c1OC (stereo not shown) | -6.8
38 | CNc1nc(-c2ccc3c(c2)CCN3S(=O)(=O)c2ccccc2)c(C)s1 | 6.35
39 | Brc1cc(-c2ccccc2)nc(-c2ccccc2)n1 | 7.42
40 | CN(CCc1ccccn1)C(=O)CCC1CCCN(C(=O)c2cccc(N(C)C)c2)C1 (stereo not shown) | 7.98
41 | CCOC(=O)c1cnc2ccc(C)cc2c1OCc1cc(F)cc(F)c1 | -18
42 | C#CC1(NC(=O)N(C)C)CCCCC1 | 11.5
43 | Cc1cc(C)cc(N2C(=O)CC(Sc3ccccc3C(=O)O)C2=O)c1 (stereo not shown) | 9.18
